Measured values from patent publication US20090036364A1.

Biological target: amylin receptor (rat nucleus accumbens membranes) (rat)
Assay: displacement of 125I-amylin on rat nucleus accumbens membranes

AMY RBA: 0.03
Substance: hAmylin(1-7)-11,18Arg-sCT(8-27)-Amylin(33-37) (sequence not shown) (peptide; modification not given)
